Measurements taken from the supplement of paper PMC8728848.
Some of the results follow.

Tests used:
Experiment in all cases: glycan array binding signal (z-score within array); higher = stronger binding
Details in all cases: glycan notation: IUPAC condensed, linker removed
[1] = biological target: Gal(a1-3)Gal(b1-4)GlcNAc
Outline: (§1)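 From the Consortium for Functional Glycomics database, 3228 arrays were curated, keeping only those whose protein sequence was available. Binding is given as a within-array Z-score averaged across arrays sharing a protein sequence and across linkers. Negative Z-scores can be read as non-binding.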

[2] = biological target: Gal(a1-3)Gal(b1-4)GlcNAc(b1-2)Man
Outline: as §1

[3] = biological target: Gal(a1-3)Gal(b1-4)GlcNAc(b1-2)Man(a1-3)[Gal(a1-3)Gal(b1-4)GlcNAc(b1-2)Man(a1-6)]Man(b1-4)GlcNAc(b1-4)GlcNAc
Outline: as §1

[4] = biological target: Gal(a1-3)Gal(b1-4)GlcNAc(b1-3)GalNAc
Outline: as §1

[5] = biological target: Gal(a1-3)Gal(b1-4)GlcNAc(b1-6)GalNAc
Outline: as §1

[6] = biological target: Gal(a1-3)Gal(b1-4)[Fuc(a1-3)]GlcNAc
Outline: as §1

[7] = biological target: Gal(a1-3)Gal(b1-4)[Fuc(a1-3)]GlcNAc(b1-2)Man(a1-3)[Gal(a1-3)Gal(b1-4)[Fuc(a1-3)]GlcNAc(b1-2)Man(a1-6)]Man(b1-4)GlcNAc(b1-4)GlcNAc
Outline: as §1

[8] = biological target: Gal(a1-3)GalNAc
Outline: as §1

[9] = biological target: Gal(a1-3)[Gal(a1-4)]Gal(b1-4)GlcNAc
Outline: as §1

[10] = biological target: Gal(a1-4)Gal(b1-3)GlcNAc(b1-2)Man(a1-3)[Gal(a1-4)Gal(b1-3)GlcNAc(b1-2)Man(a1-6)]Man(b1-4)GlcNAc(b1-4)GlcNAc
Outline: as §1

[11] = biological target: Gal(a1-4)Gal(b1-4)Glc
Outline: as §1

[12] = biological target: Gal(a1-4)Gal(b1-4)GlcNAc
Outline: as §1

[13] = biological target: Gal(a1-4)Gal(b1-4)GlcNAc(b1-2)Man(a1-3)[Gal(a1-4)Gal(b1-4)GlcNAc(b1-2)Man(a1-6)]Man(b1-4)GlcNAc(b1-4)GlcNAc
Outline: as §1

[14] = biological target: Gal(a1-4)Gal(b1-4)GlcNAc(b1-3)Gal(b1-4)Glc
Outline: as §1

[15] = biological target: Gal(a1-4)GlcNAc
Outline: as §1

[16] = biological target: Gal(a1-6)Glc
Outline: as §1

[17] = biological target: Gal(b1-2)Gal
Outline: as §1

[18] = biological target: Gal(b1-3)Gal
Outline: as §1

[19] = biological target: Gal(b1-3)Gal(b1-4)GlcNAc
Outline: as §1

[20] = biological target: Gal(b1-3)GalNAc
Outline: as §1

[21] = biological target: Gal(b1-3)GalNAc(a1-3)[Fuc(a1-2)]Gal(b1-4)Glc
Outline: as §1

[22] = biological target: Gal(b1-3)GalNAc(a1-3)[Fuc(a1-2)]Gal(b1-4)GlcNAc
Outline: as §1

[23] = biological target: Gal(b1-3)GalNAc(b1-3)Gal
Outline: as §1

[24] = biological target: Gal(b1-3)GalNAc(b1-3)Gal(a1-4)Gal(b1-4)Glc
Outline: as §1

[25] = biological target: Gal(b1-3)GalNAc(b1-4)Gal(b1-4)Glc
Outline: as §1

[26] = biological target: Gal(b1-3)GalNAc(b1-4)[Neu5Ac(a2-3)]Gal(b1-4)Glc
Outline: as §1

[27] = biological target: Gal(b1-3)GlcNAc
Outline: as §1

[28] = biological target: Gal(b1-3)GlcNAc(a1-3)Gal(b1-4)GlcNAc
Outline: as §1

[29] = biological target: Gal(b1-3)GlcNAc(a1-6)Gal(b1-4)GlcNAc
Outline: as §1

[30] = biological target: Gal(b1-3)GlcNAc(b1-2)Man
Outline: as §1

[31] = biological target: Gal(b1-3)GlcNAc(b1-2)Man(a1-3)[Gal(b1-3)GlcNAc(b1-2)Man(a1-6)]Man(b1-4)GlcNAc(b1-4)GlcNAc
Outline: as §1

[32] = biological target: Gal(b1-3)GlcNAc(b1-2)Man(a1-3)[Gal(b1-3)GlcNAc(b1-2)Man(a1-6)]Man(b1-4)GlcNAc(b1-4)[Fuc(a1-6)]GlcNAc
Outline: as §1

[33] = biological target: Gal(b1-3)GlcNAc(b1-2)Man(a1-3)[GlcNAc(b1-4)][Gal(b1-3)GlcNAc(b1-2)Man(a1-6)]Man(b1-4)GlcNAc(b1-4)GlcNAc
Outline: as §1

[34] = biological target: Gal(b1-3)GlcNAc(b1-2)[Gal(b1-3)GlcNAc(b1-6)]Man(a1-6)[Gal(b1-3)GlcNAc(b1-2)Man(a1-3)]Man(b1-4)GlcNAc(b1-4)GlcNAc
Outline: as §1

[35] = biological target: Gal(b1-3)GlcNAc(b1-3)Gal(b1-3)GlcNAc
Outline: as §1

[36] = biological target: Gal(b1-3)GlcNAc(b1-3)Gal(b1-4)Glc
Outline: as §1

[37] = biological target: Gal(b1-3)GlcNAc(b1-3)Gal(b1-4)GlcNAc
Outline: as §1

B1: Epa3 (Candida glabrata), Q6VBI8_CANGB (protein)
chain: MGSSHHHHHHSSGLVPRGSHMNDLGFSLFEKRELSSQNPFGYPIGCSPQDVAIIPGLTMELYSYPIVSGTPPNCYDASYVDPEYPRTGYLKRKMVGKSTGVTGNLNYKYSVEKACMVKYGNLPAGYNYNEPLTVSNFTMILYGYFKAQTTGLHTFFVNADDLLYINFGAGNAFDCCKREDSKTKLGEYVAYDIWHVDSSKNKVSLFLEKDLYYPIRMFFNNIGKDSSLDLSFSVNGATDQISDFSGYLYSVPDQPDTCPAHIGYDTTCR
glycan array binding signal (z-score) [1]: -0.277
glycan array binding signal (z-score) [2]: -0.215
glycan array binding signal (z-score) [3]: 0.16
glycan array binding signal (z-score) [4]: -0.261
glycan array binding signal (z-score) [5]: -0.218
glycan array binding signal (z-score) [6]: -0.161
glycan array binding signal (z-score) [7]: -0.1
glycan array binding signal (z-score) [8]: -0.215
glycan array binding signal (z-score) [9]: 0.057
glycan array binding signal (z-score) [10]: 0.101
glycan array binding signal (z-score) [11]: -0.049
glycan array binding signal (z-score) [12]: -0.044
glycan array binding signal (z-score) [13]: 0.284
glycan array binding signal (z-score) [14]: -0.137
glycan array binding signal (z-score) [15]: -0.083
glycan array binding signal (z-score) [16]: -0.248
glycan array binding signal (z-score) [17]: -0.015
glycan array binding signal (z-score) [18]: 1.83
glycan array binding signal (z-score) [19]: 3.61
glycan array binding signal (z-score) [20]: 2.99
glycan array binding signal (z-score) [21]: 3.57
glycan array binding signal (z-score) [22]: 3.87
glycan array binding signal (z-score) [23]: 8.62
glycan array binding signal (z-score) [24]: 3.07
glycan array binding signal (z-score) [25]: 17
glycan array binding signal (z-score) [26]: 2.86
glycan array binding signal (z-score) [27]: -0.202
glycan array binding signal (z-score) [28]: -0.299
glycan array binding signal (z-score) [29]: -0.36
glycan array binding signal (z-score) [30]: 0.223
glycan array binding signal (z-score) [31]: -0.25
glycan array binding signal (z-score) [32]: -0.168
glycan array binding signal (z-score) [33]: 0.016
glycan array binding signal (z-score) [34]: -0.018
glycan array binding signal (z-score) [35]: -0.29
glycan array binding signal (z-score) [36]: -0.409
glycan array binding signal (z-score) [37]: -0.316
